Experimental data: the BET-seq Pho4 binding data (Le et al. 2018)
The list shows a part of the results. Values were computed here from the reads of four pooled replicates and scatter widely.

The sequences below were run against T1, Pho4 (S. cerevisiae) (UniProt P07270) (assay: relative binding free energy (BET-seq); higher = weaker binding). Settings: reference: library average.
T1 sequence: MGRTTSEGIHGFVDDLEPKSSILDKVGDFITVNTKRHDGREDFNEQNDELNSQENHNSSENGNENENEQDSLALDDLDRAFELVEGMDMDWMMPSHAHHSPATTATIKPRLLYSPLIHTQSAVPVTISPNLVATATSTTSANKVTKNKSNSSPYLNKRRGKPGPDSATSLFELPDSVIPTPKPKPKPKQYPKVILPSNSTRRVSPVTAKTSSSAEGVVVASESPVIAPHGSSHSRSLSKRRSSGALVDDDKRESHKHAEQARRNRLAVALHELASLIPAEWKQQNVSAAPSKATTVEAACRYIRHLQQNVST

Row | Sequence | relative binding free energy [kcal/mol]
1 | GGGGCCACGTGGGGCG | -0.21
2 | TTCTTCACGTGTGAGT | 0.26
3 | AGTGTCACGTGGGGTA | -0.02
4 | AGATGCACGTGATTGT | 0.06
5 | TAGGACACGTGGGTTA | -0.04
6 | ACTGTCACGTGTATTG | 0.04
7 | GTAATCACGTGCTTGT | 0.21
8 | TGAGACACGTGGGGAC | 0
9 | GTAATCACGTGTATTT | 0.21
10 | ACGGGCACGTGATGTG | 0.07
11 | TAAGTCACGTGCGATG | 0.11
12 | TTTGGCACGTGTTGTA | -0.06
13 | ACTGTCACGTGGTGTG | 0.02
14 | GATTACACGTGTGTGC | 0.25
15 | TCGCTCACGTGTGGTG | 0.26
16 | TGTAGCACGTGAGAGG | 0.22
17 | TGCTTCACGTGTGTAA | 0.23
18 | GGATGCACGTGGCGTG | -0.05
19 | ATTATCACGTGCATTT | 0.1
20 | CAGATCACGTGGGAGG | 0.05
21 | GGGATCACGTGTATTA | 0.05
22 | ATTATCACGTGAGGTA | 0.31
23 | TTTATCACGTGTATGT | 0.15
24 | AGGAGCACGTGGGAGG | -0.28
25 | GTCATCACGTGGCAGG | 0.21

Row | Sequence | relative binding free energy [kcal/mol]
26 | TTAGGCACGTGTTCGA | -0.21
27 | TTAAGCACGTGGAGGG | -0.15
28 | TCGTTCACGTGACGTG | 0.24
29 | GAGAGCACGTGTGTAG | -0.12
30 | GGGCTCACGTGAGGGA | 0.51
31 | GTTGTCACGTGACGCG | 0.22
32 | GTAGACACGTGTCGGG | -0.02
33 | GTTAGCACGTGATTAG | 0.02
34 | GCGGTCACGTGTTGGG | 0.17
35 | GTTTGCACGTGTTGCC | 0.04
36 | TAGGTCACGTGGTGAA | 0.02
37 | TCATCCACGTGGGTGT | -0.15
38 | CTGGTCACGTGTGGAA | 0.12
39 | AGGGACACGTGTGGTT | 0.1
40 | GTGAGCACGTGGACGG | -0.13
41 | ATAGTCACGTGCGGTC | 0.24
42 | TTGTGCACGTGGCCGA | -0.1
43 | GTGGACACGTGGTCTG | -0.13
44 | CTTGACACGTGTGGGT | -0.09
45 | GTTCACACGTGTATTG | 0.09
46 | ATTCTCACGTGGTATG | 0.28
47 | GGGCGCACGTGTGGAG | 0.03
48 | CGGTTCACGTGTGGGG | 0.31
49 | CAGATCACGTGTGGTG | 0.1
50 | TGTGGCACGTGCTGGA | -0.13

Row | Sequence | relative binding free energy [kcal/mol]
51 | GGATACACGTGGGTTG | 0.02
52 | CGAGTCACGTGAGTGG | 0.3
53 | TTCTTCACGTGTAAAT | 0.32
54 | ATACTCACGTGTGGAT | 0.35
55 | TAAGTCACGTGTAATA | 0.15
56 | AGTATCACGTGCGGGG | 0.22
57 | TGATTCACGTGAAGTA | 0.32
58 | AGATTCACGTGATTTG | 0.32
59 | CGTTACACGTGTTAAT | 0.27
60 | GAGTTCACGTGGCTCG | 0.47
61 | TTCTACACGTGAGTTA | 0.38
62 | GAGGTCACGTGATTGA | 0.37
63 | TTGTGCACGTGTGCGG | -0.16
64 | ATCGACACGTGTTGGT | 0.05
65 | GATTACACGTGATGTG | 0.22
66 | AAGCGCACGTGAGTTG | 0.21
67 | TGGAGCACGTGGCTGA | -0.12
68 | TCTAGCACGTGCGGGT | -0.02
69 | AGGTTCACGTGAGCGT | 0.35
70 | AAATTCACGTGATGTT | 0.41
71 | TGTGGCACGTGTTAAG | -0.03
72 | TTGGGCACGTGTGAAG | -0.01
73 | TTGGACACGTGTAGGC | 0.09
74 | ACTTTCACGTGCGTGT | 0.2
75 | TGGCGCACGTGTTTGG | -0.06

Row | Sequence | relative binding free energy [kcal/mol]
76 | CGGGTCACGTGGAGCT | -0.01
77 | TTCAACACGTGAGGTA | 0.25
78 | TGGGCCACGTGAAGGC | 0.18
79 | TGTCTCACGTGCGGTA | 0.17
80 | ATTGTCACGTGGATGG | -0.03
81 | GGGATCACGTGTTAGA | 0.33
82 | CTTTGCACGTGTGTAT | 0.07
83 | CTAGGCACGTGGGGGT | -0.19
84 | TTCATCACGTGAAGGT | 0.23
85 | GGGGTCACGTGTCCTT | 0.12
86 | GGTATCACGTGAAGGA | 0.4
87 | TGGGACACGTGTCATG | 0.01
88 | GAGGCCACGTGGTTTG | -0.02
89 | CGTGGCACGTGGGGCG | -0.26
90 | TTGTTCACGTGCTCTA | 0.21
91 | AGAGGCACGTGTAGAA | 0.02
92 | GTGAGCACGTGATGGT | 0.04
93 | GAGTGCACGTGTTCAG | 0.09
94 | TGGTACACGTGGTGAG | -0.07
95 | TGTATCACGTGGGATC | 0.06
96 | TGAATCACGTGGGGAC | 0.09
97 | GGTGGCACGTGCTTTT | -0.06
98 | CGCAGCACGTGGGATG | -0.14
99 | GGCGGCACGTGCTGCG | -0.08
100 | TATGGCACGTGTATGG | 0.09

Row | Sequence | relative binding free energy [kcal/mol]
101 | GGTCTCACGTGCGAGT | 0.3
102 | GTAAGCACGTGGTATT | -0.07
103 | TGGGCCACGTGGCGGG | -0.32
104 | TTCGGCACGTGCAGTG | -0.07
105 | AGCTGCACGTGTGGGA | 0.07
106 | AGGCTCACGTGGTGGA | 0.17
107 | AGGCACACGTGGAAGT | 0.22
108 | AAGAGCACGTGGAGTG | -0.14
109 | AAGAGCACGTGAAGTG | 0.21
110 | TCTGTCACGTGAGGTG | 0.28
111 | TTGTTCACGTGCAAGA | 0.28
112 | CGGAGCACGTGTGGAT | -0.08
113 | AATAGCACGTGGTTTT | 0
114 | AGTGGCACGTGGGGCC | -0.26
115 | CGTTACACGTGTGATG | -0.01
116 | CAGGGCACGTGGTTCT | -0.03
117 | GTTGTCACGTGTTCGA | 0.06
118 | ATCGTCACGTGATTTT | 0.19
119 | TTAATCACGTGTAGTT | 0.15
120 | GAGTGCACGTGCGTGT | -0.04
121 | TAATGCACGTGTTTTT | 0.03
122 | TTGTCCACGTGTGGTA | 0.03
123 | ACGGTCACGTGGGCGT | -0.21
124 | CTTGGCACGTGCGTGA | -0.2
125 | CTTGTCACGTGTCGTA | 0.13

Row | Sequence | relative binding free energy [kcal/mol]
126 | GGGGACACGTGGCGGC | -0.01
127 | GTGGTCACGTGAGGTG | 0.25
128 | AGGGTCACGTGAAATA | 0.22
129 | CGGCACACGTGGGGTA | -0.12
130 | GGAAGCACGTGAGTAG | 0.15
131 | GGCTTCACGTGACGGT | 0.31
132 | GTTTGCACGTGTATAC | 0.01
133 | TAGGGCACGTGGAGTG | -0.12
134 | TGTAACACGTGGGTCT | -0.05
135 | CGGTTCACGTGTGTAT | 0.16
136 | GTTGGCACGTGCATCG | -0.18
137 | AAGTGCACGTGGTGTT | -0.11
138 | ATAGTCACGTGATGAA | 0.18
139 | AGTTACACGTGGGATC | 0.06
140 | GAGGGCACGTGAGTTC | 0.23
141 | AATTACACGTGTTGTT | 0.11
142 | GGAATCACGTGTAAGG | 0.19
143 | ATAGTCACGTGTGAAG | 0.12
144 | CAGTTCACGTGGGTTA | 0.2
145 | TTTTACACGTGTCAGT | 0.13
146 | ATTAGCACGTGTTTCT | 0.07
